# Source: PubChem BioAssay AID485344 (National Center for Advancing Translational Sciences (NCATS), 2010)
# About 6,900 (2%) of roughly 340,000 compounds were called active. Cut-off read from the data, not from the text of the source: active = inhibition above about 30%; inactive = below that, where a call was filed. This is a selection; strong and weak results do not stand in their true shares. Entries without a call were filed so in the source.
# Molecular target: D(2) dopamine receptor (Homo sapiens) (UniProt P14416)
# Test: HTS Assay for Allosteric Antagonists of the Human D2 Dopamine Receptor: Primary Screen for Antagonists; note: 0% is about no effect
# Details: HEK293 TREx D2 cells, calcium flux, dopamine EC80; at 10 µM; stronger effect = higher value
# In short: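 Compounds are added to dye-loaded, induced HEK293 T-REx cells coupled to calcium release via D2; after a 3 min kinetic read an EC80 dopamine stimulus is given and fluorescence is recorded for 3 more min.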
# Sequence of UniProt P14416 (P14416 whole entry, looked up): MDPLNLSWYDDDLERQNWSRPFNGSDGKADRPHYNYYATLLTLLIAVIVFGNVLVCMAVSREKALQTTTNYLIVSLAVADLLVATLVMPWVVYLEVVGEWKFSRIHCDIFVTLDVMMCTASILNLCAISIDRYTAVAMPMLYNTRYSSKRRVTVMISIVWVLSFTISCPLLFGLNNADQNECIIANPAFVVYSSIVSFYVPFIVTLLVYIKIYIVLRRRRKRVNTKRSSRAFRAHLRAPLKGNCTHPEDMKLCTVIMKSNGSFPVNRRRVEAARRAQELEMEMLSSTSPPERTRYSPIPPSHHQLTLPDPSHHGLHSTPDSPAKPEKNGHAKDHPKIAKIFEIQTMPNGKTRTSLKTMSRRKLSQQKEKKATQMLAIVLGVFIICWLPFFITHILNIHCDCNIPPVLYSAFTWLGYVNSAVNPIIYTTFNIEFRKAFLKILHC
row,Structure (SMILES),inhibition
1,CCCCNCC1CCCO1 (configuration not stated),active: 69.6%
2,O=C(CCS(=O)(=O)c1cccc2nonc12)Nc1cccc(F)c1,9.07%
3,CC(C)NC(=O)CSc1nc2ccccc2c(=O)n1Cc1ccc(C(=O)NC(C)C)cc1,-10.4%
4,CC(CNC(=O)c1ccc2c(c1)nc1n2CCOC1)c1ccccc1 (configuration not stated),5.01%
5,O=C(CSc1nc(=O)[nH]c2c1CCC2)NCc1ccc(Cl)cc1,24.4%
6,CC(Sc1nc2ccccc2[nH]1)C(=O)Nc1ccc2c(c1)OCCO2 (configuration not stated),active: 65.8%
7,Cc1cc2c(cc3c(=O)n(CC(=O)NCc4ccccc4Br)ncn32)s1,-3.33%
8,CCc1c(C)nc2nncn2c1NCc1ccc(OC)cc1,9.37%
9,Cc1ccc(Cc2c(C)nc3c(-c4ccccc4)c(C)[nH]n3c2=O)cc1,7.86%
10,Cc1ccc(-n2nc(C)c3c(C(=O)O)cc(C)nc32)cc1,13.5%
11,CCOC(=O)CSc1nnc2n(-c3ccccc3)c(=O)c3c4c(sc3n12)COC(C(C)C)C4 (configuration not stated),-17.4%
12,COc1ccc(C(=O)[C@H]2[C@H]3C(=O)N(c4ccccc4)C(=O)[C@H]3C3C=CC=NN32)cc1 (some centres not stated),active: 43.1%
13,CCCCN(CC)CCNC(=O)C1CCN(c2nnc(C)c3c(C)n(-c4ccc(C)cc4)nc23)CC1,-18.1%
14,Cc1cc(N2CCC(C(=O)Nc3ccc(Cl)cc3)CC2)n2nc(C)c(-c3ccc(Cl)cc3)c2n1,-8.16%
15,CCOC(=O)c1noc2nc(C)n(CC(=O)Nc3ccc(OC)c(Cl)c3)c(=O)c12,-2.23%
16,O=C(O)CSc1nnc(-c2ccc(O)cc2)o1,-8.3%
17,Cc1ccc(CC(=O)Nc2c(C(=O)N3CCN(c4ccccc4)CC3)oc3ccccc23)cc1,1.92%
18,CCOc1ccc(-c2cc(C(=O)NCCc3ccccc3)c3c(-c4ccc(C)cc4)[nH]nc3n2)cc1,1.36%
19,CCN(CC)c1ccc(NS(=O)(=O)c2ccc(-c3coc(C)n3)cc2)c(C)c1,2.02%
20,CCN(CC)c1cc(C)c2cc(NC(=O)/C=C/c3ccccc3OC(C)C)ccc2n1,-8.91%
21,Cc1ccc(Oc2nc3ccccn3c(=O)c2/C=C(\C#N)c2nc3ccccc3s2)c(C)c1,5.61%
22,Cc1cc(C)c2c(=O)c3c(oc2c1)C(=O)N(Cc1ccco1)C3c1ccc(F)cc1 (configuration not stated),4.13%
23,CC(=O)N1CCc2c(sc3c2c(=O)n(-c2cccc(Cl)c2)c(=O)n3Cc2ccc(F)cc2Cl)C1,-7.33%
24,Cc1cc(-c2ccc(C)c(S(=O)(=O)N3c4ccccc4CC3C)c2)on1 (configuration not stated),-3.22%
25,CCOC(=O)c1c(NC(=O)/C=C/c2ccc(OCC)cc2)sc2c1CCCC2,-8.39%
26,O=C(NCc1ccc2c(c1)CCN2C(=O)c1ccc(Cl)cc1)c1ccco1,-3.96%
27,Cc1nnc(N2CCN(c3ccccc3F)CC2)c2c1nnn2Cc1ccccc1Cl,1.58%
